This passage reports self-cleavage results from the RNAGym collection of RNA variant scans (doi:10.7554/elife.90254).

Sequences and labels used below:
B1: OR4K15 (parent)
chain: GUUAACGGUCAUAGGCCAUGGAAACUAGGAGCACCAUUUCGCUGCCAGUGAAGAAAUGAACAAAGAAAAUCUGGGCCAGGCAGGCAUCAAAAGAAAUAGUCUUGCGCUCAACCAGAAAGUCUGUAAUCAUUUUAAGGGUA

The source gives no read counts; variants with many changes may rest on few reads.

This series covers variants of B1. The series can be described thus: self-cleavage, relative activity (ratio to wild type); higher = more cleavage; in vitro, sequencing; the parent is a self-cleaving ribozyme.
Turning to A11U A33G U49A U57C G79A A129G, the self-cleavage is 0.03. In the case of U12C A90G A110C A116C it was 0.04; in that of A11U A86G A111G A140C, 0.02; in that of A11U A55G G104A A116G U132C, 0.02. The result for U12C U19C A30G A86G reads 1.39; that for U12C U70C A116U U122A, 0.14. Consider A13G A18G U37A, for which the self-cleavage was 0.74. For A11U U43C A78G U100C, the self-cleavage came to 0.37.

Consider A13G A24G A59G A68G C88G U127C, for which the self-cleavage was found to be 0.84. In the case of A11G U12G A33C A68G C77U U103A it was 0.42; in that of U12A A62G U102C, 1.84; in that of U12C U37C U102C, 1. The result for A11G G41A U132C reads 0.76; that for A11U C45U A64G A96G, 1.17. The result for U12A U38C A47U U122C reads 0.95.

As for U12A A64G A118G, the self-cleavage was 1.18.

As for A11U U19C A60C, the self-cleavage was determined as 0.86. Regarding A11G A82G A90G A134G, the self-cleavage was determined as 0.2. With U12C G48A A86G, the self-cleavage came out at 0.95. Take U12C A54G A94G: the self-cleavage turned out to be 1.49.

As for A11G A66G A67G A111G A116G, the self-cleavage stood at 0.04.

In the case of U12C A27G A47U, the self-cleavage was determined as 0.63. For the variant A11U A22G C42U A69G A92G, the self-cleavage was 1.02.

With A11U G21A U103C, the self-cleavage came to 1.11. The result for A11G U19C A68U reads 1.01; that for A11G U57C A86G A96G, 1.18; that for U12A C76U U103C, 0.08. Regarding A13G A22U U122A, the self-cleavage was 1.48.

Turning to A11U A52G U108C, the self-cleavage was found to be 0.07. In the case of A11G U87C A96G G136A, the self-cleavage came to 1.57. Take A11U U49G G106A A111G A118G: the self-cleavage is 0. As to A11U A51G A60U, the self-cleavage was 1.67. On to A13C U26C A54U A60U U102G U130C, for which the self-cleavage worked out at 0.19.

Regarding U12C A64G A82G, the self-cleavage is 0.46. For the variant A11U A24G U37C A64C A78G, the self-cleavage was determined as 0.23.

A13C A59G U72G A94G: the self-cleavage was 0.36. In the case of U12A A55U A66C U120C A134G it was 0.93; in that of A11G A82U U130C, 0.18.

For the variant U12C A22G U108A, the self-cleavage is 0.05.

Turning to U12C A63G A64G, the self-cleavage was determined as 1.22.

As to A11G U19C A63G U108C G119A, the self-cleavage amounted to 0.02. U12C U49A A52G: the self-cleavage worked out at 1.14. Consider A11G G31C A110U, for which the self-cleavage is 1.07. The result for A11G A82U A94G A98G A110U reads 0.03. For A11U A68G U97C U102C U127C, the self-cleavage was 1.59.

For A11G U39C U72A, the self-cleavage amounted to 0.11. With A11G A62G A96G A140C, the self-cleavage stood at 0.61. For A11U A59G A111U, the self-cleavage turned out to be 0.06. Take A11U U39A U57C: the self-cleavage is 0.96. For U12C U49A A117G, the self-cleavage worked out at 0.83. The result for A11G G41U U57C A134U reads 1.01; that for U12C U37C A111G, 0; that for A11G A62G A96G, 1.13.

As to U12C A30G A90G U131C, the self-cleavage was found to be 0.46. Take U12C A22G A117G: the self-cleavage was 1.15. The result for A11U A18U A22G U43C reads 1; that for A13G A30G A33G, 1.07.

A11G U108C A114G A117G: the self-cleavage is 0. With U12A G15A U102C, the self-cleavage stood at 2.22. Regarding U12C A22G A47U U70C, the self-cleavage was found to be 0.81. On to U12C A23G A64U A111G, for which the self-cleavage turned out to be 0.1. On to A13C A22G A56U U57C A90G, for which the self-cleavage turned out to be 1.39. As to A13G A33G U38C, the self-cleavage amounted to 0.48.

Consider U12A U37C U103C A116G, for which the self-cleavage came to 0.26.

For A11U A24G A30G A68G A82G, the self-cleavage amounted to 0.93. The result for U12C A59G A66G U70A C109U reads 0.17; that for A11U A22G A66C A86G A117G, 1.12; that for A11G A117U U122A, 1.11. For A11G G65U U130C, the self-cleavage is 0.81. Turning to A11G A114C U122C, the self-cleavage came out at 0.03. On to U12C A96G U100C A114U, for which the self-cleavage was found to be 0.09.

As for A11U A117G U130C, the self-cleavage was 1.34. For the variant A11G U38C U39A, the self-cleavage worked out at 0. In the case of A11U A36G U38A A67G it was 1.09; in that of A11G G21A U57A A68G A116G, 0.48; in that of U12C A94G U103C, 1.16.

As for U12C A64G A90G U127C, the self-cleavage is 0.42. Consider U12C U38A A98G A111G, for which the self-cleavage amounted to 0.02. Turning to U12G U39C U72G A78G, the self-cleavage is 0.42.

With A13G A23G A135G, the self-cleavage came out at 1.05. For the variant U12A A36G A111C, the self-cleavage came to 0.07. With A11G U39A A54G, the self-cleavage was found to be 0.76. The result for A11G G75A C101U reads 0.09; that for U12A A67G A98C A110G A118G, 0.2.

In the case of A11U A67G A92G U102C, the self-cleavage turned out to be 0.57. With A13G A18G U19C A64U A68G A91G A94C U131C, the self-cleavage amounted to 0.56. As to U12A A30G U37C, the self-cleavage was 0.6. Take A11U A18G U37C A47G A63U: the self-cleavage amounted to 1.17. On to A11G A62G U72C A96G, for which the self-cleavage is 0.18. In the case of A13G A51G A110G it was 0.26. The result for A11G U49A A68G U72A reads 0.37; that for U12C A36G A59G A90G U108C A129G, 0.01; that for U12C A51U U108A, 0.03.

Take A11U U38C A82G A89G: the self-cleavage was found to be 0.7. The result for A11G U122C A135G reads 1.09. Consider A11G U122C A135U, for which the self-cleavage was 1.03. The result for U12A A62G U103C reads 1.4. With U12A A47G A55G U108C U122A, the self-cleavage is 0.04. As for U12A A78U A140G, the self-cleavage turned out to be 0.26. In the case of U12C A36C U49A A91G, the self-cleavage was determined as 0.71. For A11U U57C A95G A118G A126G U133C, the self-cleavage came to 0.86.

With A13C A47U A51U A98G, the self-cleavage stood at 0.56. On to A11G C46U U127C, for which the self-cleavage came to 0.44. The result for U12C A64G U87C reads 0.92. In the case of U12A A23G A114G A118U it was 0.13; in that of A11U A22G A111G A126G, 0.02; in that of A11G A68G A116G, 0.74.

A11U A56G C81U A96G U120C: the self-cleavage was found to be 0.1. Turning to A13C A64G A86G A117G, the self-cleavage was 1.02.

On to A11U A36G A86U, for which the self-cleavage is 0.81. For A13G A23G A62U A69U, the self-cleavage was determined as 0.91. Take A11U A22G A60G A78U A86G U100C: the self-cleavage was 0.51. As to A11U A18G A62G U102A, the self-cleavage came out at 1.

As for U12C A55G A56U A118G A135G, the self-cleavage was found to be 0.16. Regarding A11G U37C A59G, the self-cleavage was 1. In the case of A11U G83A G136U, the self-cleavage was determined as 2.03. For A13G A30G A96G, the self-cleavage worked out at 1.34. Regarding U12A C16U A22G A64G U87C, the self-cleavage was 1.34. In the case of U12C A90G A94G C105A A111G it was 0.03; in that of U12C A30G A62G A69G, 1.07; in that of U12C A90G U103A G104A, 0.02. In the case of U12C G20A A62G, the self-cleavage was found to be 0.91.

Regarding A13G A51U A86G, the self-cleavage amounted to 0.45. Consider U12A G29A U49A A68G, for which the self-cleavage amounted to 1.83. Regarding A11U U103C A135U, the self-cleavage stood at 0.9. In the case of A11U A68G U72C A82G A96G it was 0.23; in that of A11G A68G U130C, 0.75. Turning to U12C A24G A27U U38C U108C U132A, the self-cleavage amounted to 0.31. On to U12C A18U C105U A116G, for which the self-cleavage was 0.07. A11G A78G A116G: the self-cleavage worked out at 0.14. U12C G28A U72A A118G: the self-cleavage came out at 0.04. In the case of A11G U100C A125G it was 1.03; in that of A13G A30C A82U, 0.41. For U12C U57C U120C, the self-cleavage is 0.9. As for U12A U43A A63G A69G, the self-cleavage was 1.17. In the case of A11G G41A A96G, the self-cleavage stood at 1.52. In the case of A11G G44A A62G A111G it was 0. On to A11U A22G A59U A117G, for which the self-cleavage is 1.02. On to U12C U39G U100C U131C, for which the self-cleavage came out at 1.21. Consider A13G A33U U43C A62G A135U, for which the self-cleavage turned out to be 0.65.

For A11G U49C A62G A94G U97C U122C A126G, the self-cleavage worked out at 0.37. As to A11U A18G G75C A118U, the self-cleavage is 0.06. Turning to U12C G53A U122A, the self-cleavage came out at 0.86. With A11U A36G U43C A134G, the self-cleavage was found to be 1.16.

Turning to U12C U38C U43C G48A A67G A118G, the self-cleavage stood at 0.4.

U12C A23G U127A: the self-cleavage was found to be 1.29. As for A11G U19A U102C, the self-cleavage is 1.22. The result for A11G U26A U72A U103G A110G reads 0.05.

Regarding U12A U87C A92G A135C, the self-cleavage was 1.65. As for A13G A18G U19C A36U A55G, the self-cleavage worked out at 1.13. In the case of U12C G14U A78G U108C it was 0.1. In the case of A11G U37G U43C U87C A118G U127G it was 1.36; in that of A11G U39A A111G, 0.02. Consider A11G U87A A118G, for which the self-cleavage was determined as 0.82. On to A11U A62G U132C, for which the self-cleavage was 0.63.

Consider U12C A47C A55G A78G A89G A118G, for which the self-cleavage came to 0.04.

For the variant A11G A63G A90G G138U, the self-cleavage was determined as 1.64.

Take U12C A23G U39C U43A: the self-cleavage came to 0.75. Regarding A11U A13U U19C A47U, the self-cleavage was determined as 1.34. Consider A11U C34A A62G, for which the self-cleavage stood at 1.75. For the variant A11G A82C A90G, the self-cleavage turned out to be 0.17. In the case of A11U G31A A110G U124C it was 0.15. In the case of A11G A117G U132C, the self-cleavage was 0.86.

On to U12C G14U A24G A69G, for which the self-cleavage stood at 0.7.

Take A13G A33G C40U U102A U122C A140G: the self-cleavage came out at 0.58. A13G A18G U37C G83C U108C A140U: the self-cleavage was 0.02. As to A11G U38C A82U A95C, the self-cleavage was determined as 0.1.
